{"source": "PubChem BioAssay AID624417", "about": "(National Center for Advancing Translational Sciences (NCATS), 2012)", "note": "The campaign covered roughly 410,000 compounds. About 6,400 (1.6%) were called active. Inconclusive results, whose numbers are uncertain, are shown with a selection of clear calls. Calls follow the shape of the dose curve; as a rule, active = well fitted inhibition curve with a large enough effect; inconclusive = small, poorly fitted or top-dose-only effect; inactive = no such curve, though single readings can be large or run the other way. Potencies of inconclusive entries are left out as doubtful fits. % is scaled to controls: 0 for no effect and ±100 for the full control effect; potency is read from the fitted curve at half-maximal effect; tags tell the direction and shape of the fitted curve."}
{"target": "Glucagon-like peptide 1 receptor (Homo sapiens) (UniProt P43220)", "sequence (P43220 whole entry, looked up)": "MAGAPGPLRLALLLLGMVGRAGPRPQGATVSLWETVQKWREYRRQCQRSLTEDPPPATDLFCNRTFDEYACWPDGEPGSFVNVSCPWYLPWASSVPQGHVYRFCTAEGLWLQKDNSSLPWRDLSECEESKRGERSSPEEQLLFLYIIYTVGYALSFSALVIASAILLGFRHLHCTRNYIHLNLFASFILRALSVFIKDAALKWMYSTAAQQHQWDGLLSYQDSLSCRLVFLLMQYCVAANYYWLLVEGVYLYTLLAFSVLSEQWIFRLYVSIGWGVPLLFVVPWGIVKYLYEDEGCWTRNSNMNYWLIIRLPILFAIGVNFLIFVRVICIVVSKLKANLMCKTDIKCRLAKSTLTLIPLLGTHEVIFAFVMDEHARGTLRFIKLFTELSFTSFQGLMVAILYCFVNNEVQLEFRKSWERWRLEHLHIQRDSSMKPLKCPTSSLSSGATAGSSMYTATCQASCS", "test": "qHTS of GLP-1 Receptor Inverse Agonists (Inhibition Mode); also: nearly all actives have a fitted effect of over 55% in size", "details": "HEK293 GLP-1R CRE-luciferase, luminescence, 24 h, GLP-1R form is constitutively active; activity change, negative = inhibition: at 38.3 µM (top of the series) unless noted", "procedure,_shortened": "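Using stably transfected HEK293 (constitutively active GLP-1R, cAMP-luciferase reporter), compounds were incubated 24 hr and luciferase measured by luminescence.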"}
{"compound": "CCCOc1ccc(Br)cc1/C=N/O", "Potency": "inconclusive [inhibitor, single point]"}
{"compound": "CCCN1C2CCCC1CC(NC(=O)c1cccc([N+](=O)[O-])c1)C2", "note": "(stereo not drawn)", "Potency": "inactive"}
{"compound": "CCOc1ccc2c(c1)c(=O)c(C(=O)c1ccccc1)cn2Cc1ccccc1", "Potency": "inconclusive [inhibitor, single point]"}
{"compound": "Cc1ccc(C)c(NC(=O)CCC(=O)NNC(=O)COc2cc(C)ccc2C)c1", "Potency": "inconclusive [inhibitor, partial curve, poor fit]"}
{"compound": "COc1ccc(OCCNC(=O)Nc2cc(F)c(F)cc2Cl)cc1", "Potency": "inconclusive [inhibitor, single point]"}
{"compound": "Cc1ccc(-c2cc(-c3ccc4c(c3)NC(=O)CO4)nc3c2COc2ccccc2-3)cc1", "Potency": "inactive"}
{"compound": "S=C(NCCc1c[nH]c2ccccc12)NC1CCCCC1", "Potency": "inconclusive [inhibitor, single point]"}
{"compound": "COc1ccc(/C=C/c2ccccc2)cc1[C@H]1[C@H]2C=CC[C@@H](C)[C@@H]2C(=O)N1Cc1ccccc1", "Potency": "inconclusive [inhibitor, full curve, poor fit]"}
{"compound": "Cc1ccccc1-c1csc(C(O)c2ccc(F)c(F)c2)n1", "note": "(stereo not drawn)", "Potency": "inconclusive [inhibitor, single point]"}
{"compound": "COc1ccc2c(c1)CC(C(=O)NCc1ccc(F)cc1)CO2", "note": "(stereo not drawn)", "Potency": "inconclusive [inhibitor, single point]"}
{"compound": "O=C(Nc1nc2ccccc2[nH]1)c1ccc(Cl)cc1", "Potency": "inconclusive [inhibitor, partial curve, poor fit]"}
{"compound": "Cc1ccc(CNc2nc(C)c(C(=O)N(C)C)s2)cc1", "Potency": "inactive"}
{"compound": "NC(c1csc(Nc2cc(Oc3ccccc3)ncn2)n1)c1ccccc1Cl", "note": "(stereo not drawn)", "Potency": "inconclusive [inhibitor, single point]"}
{"compound": "COc1ccc(N2CCN(C(c3cccs3)C(C)NS(=O)(=O)c3ccccc3)CC2)cc1", "note": "(stereo not drawn)", "Potency": "inconclusive [inhibitor, single point]"}
{"compound": "CN(C)C1(CNC(=O)C2CCN(S(=O)(=O)c3c(Cl)cccc3Cl)CC2)CCCCC1", "Potency": "inconclusive [inhibitor, single point]"}
{"compound": "CCOC(=O)c1ccc(Oc2nc(NC(C)(C)C)nc(N(C)C)n2)cc1", "Potency": "active: 7.94 µM"}
{"compound": "CC1CN(c2nc3ccccc3nc2NS(=O)(=O)c2ccccc2)CC(C)O1", "note": "(stereo not drawn)", "Potency": "inconclusive [inhibitor, single point]"}
{"compound": "O=C1N[C@@H](Cc2ccccc2)COC(=O)[C@H](Cc2ccc(F)cc2)CC/C=C/C[C@@H]1CC(=O)N(CCO)Cc1ccccc1", "Potency": "inconclusive [inhibitor, single point]"}
{"compound": "C/C=C(\\C)C(=O)Nc1cccc(C2=NOC3(C2)C[C@H](C(N)=O)N(C(=O)C(c2ccccc2)c2ccccc2)C3)c1", "note": "(stereo partly drawn)", "Potency": "inconclusive [inhibitor, single point]"}
{"compound": "COc1ccc(Cl)cc1NC(=O)CN1CCCCCC1", "Potency": "inconclusive [inhibitor, single point]"}
{"compound": "C[C@@H]1CCCCO[C@H](CN(C)C(=O)Nc2ccc3c(c2)OCO3)[C@H](C)CN([C@@H](C)CO)C(=O)c2cc(NS(=O)(=O)c3ccc(Cl)cc3)ccc2O1", "Potency": "inconclusive [inhibitor, partial curve, poor fit]"}
{"compound": "CSCCC(NC(=O)C1CCC(C)CC1)C(=O)NCCN1CCC(C)CC1", "note": "(stereo not drawn)", "Potency": "inconclusive [inhibitor, single point]"}
{"compound": "CC(=O)Nc1cc(C(=O)NCc2ccccc2Cl)ccc1Sc1ccc(F)cc1", "Potency": "inconclusive [inhibitor, partial curve, poor fit]"}
{"compound": "Cc1ccc(NC(=O)c2cc(S(=O)(=O)N3CCCCC3)c[nH]2)cc1N(C)C", "Potency": "inactive"}
{"compound": "Cc1cc(C)cc(NC(=O)c2cc(S(=O)(=O)NCCC3=CCCCC3)ccc2F)c1", "Potency": "inconclusive [inhibitor, partial curve, poor fit]"}
{"compound": "Cc1cccc(NC(=S)NCCC(C)C)c1", "Potency": "inconclusive [inhibitor, single point]"}
{"compound": "COc1c(C)cc(S(=O)(=O)NC2CC(C)(C)NC(C)(C)C2)c(C)c1C", "Potency": "inconclusive [inhibitor, single point]"}
{"compound": "CCN(CC)CCCNC(=O)c1ccc2c(=O)n(Cc3ccc4c(c3)OCO4)c(=S)[nH]c2c1", "activity change, negative = inhibition": "inactive: -18.1% [at 7.66 µM]"}
{"compound": "CC(C(=O)NC1CCCC1)N(Cc1ccco1)C(=O)c1snc(C(=O)NC2CCCC2)c1N", "note": "(stereo not drawn)", "Potency": "inconclusive [inhibitor, single point]"}
{"compound": "Cc1cc(C)c(S(=O)(=O)Nc2cc(SCC(=O)O)c(O)c3ccccc23)cc1C", "Potency": "inactive"}
{"compound": "OC(CN1CCN(c2ncc(C(F)(F)F)cc2Cl)CC1)c1ccccc1", "note": "(stereo not drawn)", "Potency": "inconclusive [inhibitor, partial curve, poor fit]"}
{"compound": "O=C(Nc1ccccc1)c1ccc(-c2ccc(Br)cc2)o1", "Potency": "inconclusive [inhibitor, single point]"}
{"compound": "CC(N=c1ccccn1C(=O)Nc1ccc(Cl)cc1)c1ccco1", "note": "(stereo not drawn)", "Potency": "inconclusive [inhibitor, partial curve]"}
{"compound": "COc1ccc(N(C(=O)c2cccc([N+](=O)[O-])c2)S(=O)(=O)c2cccs2)cc1", "Potency": "inconclusive [inhibitor, partial curve, poor fit]"}
{"compound": "CN(C(=O)COc1ccc(Cl)cc1Br)C1CCCCC1", "Potency": "inconclusive [inhibitor, single point]"}
{"compound": "Cc1ccc2[nH]c(=O)c3cc(C(=O)N(C)c4ccc(Br)cc4)sc3c2c1", "Potency": "inactive"}
{"compound": "O=C(CCn1c(=O)[nH]c2ccsc2c1=O)N1CCN(c2cccc(Cl)c2)CC1", "Potency": "inconclusive [inhibitor, partial curve, poor fit]"}
{"compound": "Oc1ccc(/C=C/c2ccc3cccc(O)c3n2)cc1Br", "Potency": "active: 10 µM"}
{"compound": "COc1ccc(-n2cccc2/C=C2/NC(=O)N(c3cccc(Cl)c3)C2=O)cc1", "Potency": "inactive"}
{"compound": "O=C(Nc1nc(-c2ccc(Cl)s2)cs1)c1ccccc1", "Potency": "inconclusive [inhibitor, single point]"}
{"compound": "COc1ccc(C)cc1NC(=O)Nc1ccc2c(c1)CCC2", "Potency": "inconclusive [inhibitor, partial curve, poor fit]"}
{"compound": "CCn1ccc(C(=O)Nc2ncc(C)s2)n1", "Potency": "inactive"}
{"compound": "Cc1ccc(S(=O)(=O)NCCSc2ccccc2)cc1[N+](=O)[O-]", "Potency": "inconclusive [inhibitor, single point]"}
{"compound": "Cc1ccc(C(=O)N[C@H](C(=O)N2CCN(c3ncccn3)CC2)C(C)C)cc1", "Potency": "inactive"}
{"compound": "Cc1ccc(OCc2ccc(C(=O)NCC3CCCO3)cc2)cc1", "note": "(stereo not drawn)", "Potency": "inactive"}
{"compound": "O=C(Nc1cccc(NC(=O)c2cccs2)c1)c1ccc(Br)cc1", "Potency": "inconclusive [inhibitor, partial curve]"}
{"compound": "CN1CCN(C(=O)CCN2C(=O)S/C(=C/c3ccc(Cl)cc3)C2=O)CC1", "Potency": "inconclusive [inhibitor, partial curve, poor fit]"}
{"compound": "CCCCN1C(=O)c2[nH]nc(-c3ccccc3O)c2C1c1cc(Br)c(O)c(OC)c1", "note": "(stereo not drawn)", "Potency": "inconclusive [inhibitor, single point]"}
{"compound": "Cc1ccc(S(=O)(=O)NCC(=O)N/N=C/c2ccccc2O)cc1", "Potency": "inconclusive [inhibitor, partial curve, poor fit]"}
{"compound": "CCOc1ccc(S(=O)(=O)Nc2cccc(-c3ccc(N4CCCCCC4)nn3)c2)cc1", "Potency": "inconclusive [inhibitor, single point]"}
{"compound": "O=c1c2cccnc2n(Cc2ccccc2F)c(=O)n1Cc1ccc(F)cc1", "Potency": "inconclusive [inhibitor, single point]"}
{"compound": "CCOc1ccc(-n2c(SC(C)C)nc3c(c2=O)SCC3)cc1", "Potency": "inconclusive [inhibitor, partial curve, poor fit]"}
{"compound": "COc1ccc(C(=O)Nc2ccccc2N2CCN(C(=O)C(C)C)CC2)cc1Cl", "Potency": "inconclusive [inhibitor, partial curve, poor fit]"}
{"compound": "Cc1ccc(C(=O)NCCc2cccc(Cl)c2)cc1[N+](=O)[O-]", "Potency": "inconclusive [inhibitor, single point]"}
{"compound": "Cc1nn(Cc2ccc(C(=O)NC(C)(C)C)o2)c(C)c1Br", "Potency": "inconclusive [inhibitor, partial curve, poor fit]"}
{"compound": "CCNCc1cc(Cl)c(OCc2ccccc2)c(OCC)c1", "Potency": "inconclusive [inhibitor, partial curve, poor fit]"}
{"compound": "COc1cccc(CNC(=O)C(NS(=O)(=O)c2cccs2)C(C)C)c1", "note": "(stereo not drawn)", "Potency": "inactive"}
{"compound": "COc1ccccc1NC(=O)c1cc(S(=O)(=O)NCCc2ccccc2)ccc1F", "Potency": "inconclusive [inhibitor, single point]"}
{"compound": "O=C(NCc1ccccc1)C(=O)NCC(c1ccc2c(c1)OCO2)N1CCOCC1", "note": "(stereo not drawn)", "Potency": "inactive"}
{"compound": "Cc1cc(C(=O)CN2C(=O)NC(C)(c3cc(F)ccc3F)C2=O)c(C)n1C1CC1", "note": "(stereo not drawn)", "Potency": "inconclusive [inhibitor, single point]"}
{"compound": "Cc1ccc(Br)cc1S(=O)(=O)N1CCN(c2ccccc2)CC1", "Potency": "inconclusive [inhibitor, single point]"}
{"compound": "COc1cccc(-c2c(C(=O)N/N=C/c3ccsc3)nnn2-c2nonc2N)c1", "Potency": "inactive"}
{"compound": "CCCNC(=O)c1ccccc1NC(=O)C1COc2ccccc2O1", "note": "(stereo not drawn)", "Potency": "inconclusive [inhibitor, partial curve, poor fit]"}
